Reference: PubChem BioAssay AID2147 (National Center for Advancing Translational Sciences (NCATS), 2009)
Values joined by “and” are separate entries in the source; they are usually repeats but may differ in a detail not shown here. Identical values can stand only once. Hit rate of the full screen: of about 230,000 compounds, about 3,600 (1.6%) were called active. Inconclusive means that the source gave no clear call. Such entries were picked first, then a sample of the others. Calls follow the shape of the dose curve; as a rule, active = well fitted inhibition curve with a large enough effect (not every such curve was filed as active); inconclusive = small, poorly fitted or top-dose-only effect, or another doubt; inactive = no such curve, though single readings can be large or run the other way. Potencies beside an inconclusive call are fits to weak or partial responses and may not hold up.

What follows are molecules tested against Lysine-specific demethylase 4E (Homo sapiens) (UniProt B2RXH2) (assay: qHTS Assay for Inhibitors of Human Jumonji Domain Containing 2E (JMJD2E)). Details: JMJD2E catalytic domain, FDH-coupled NADH fluorescence (FDH is formaldehyde dehydrogenase); series mostly up to 57.1 µM.
Sequence of UniProt B2RXH2 (B2RXH2 whole entry, looked up, the tested form may be a part): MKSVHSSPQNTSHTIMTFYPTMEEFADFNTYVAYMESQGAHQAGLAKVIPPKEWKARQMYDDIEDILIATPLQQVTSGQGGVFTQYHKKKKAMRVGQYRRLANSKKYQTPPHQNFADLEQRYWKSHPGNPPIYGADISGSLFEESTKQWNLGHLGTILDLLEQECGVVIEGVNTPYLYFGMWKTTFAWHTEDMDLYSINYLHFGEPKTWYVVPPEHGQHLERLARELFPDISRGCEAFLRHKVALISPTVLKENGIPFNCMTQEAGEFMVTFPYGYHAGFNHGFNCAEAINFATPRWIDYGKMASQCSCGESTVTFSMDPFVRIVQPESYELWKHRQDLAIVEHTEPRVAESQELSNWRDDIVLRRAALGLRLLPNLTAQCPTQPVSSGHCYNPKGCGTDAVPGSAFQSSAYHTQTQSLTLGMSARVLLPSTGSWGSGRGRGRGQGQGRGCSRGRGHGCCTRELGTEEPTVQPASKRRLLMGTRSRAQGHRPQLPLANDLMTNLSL
Also: nearly all actives have a fitted effect of over 50% in size.
Potency is read from the fitted curve at half-maximal effect; tags tell the direction and shape of the fitted curve.

Structure (SMILES)	Potency
Cc1ccc(-c2cc(C(=O)NCc3ccccn3)c3ccccc3n2)cc1C	inconclusive: 25.1 µM [inhibitor, partial curve]
Brc1csc(C=Nc2ccc3c(c2)OCCOCCOCCOCCO3)c1	inconclusive: 20 µM [inhibitor, single point]
Cc1noc(C)c1COC(=O)COc1ccc2c(C)cc(=O)oc2c1	inconclusive: 25.1 µM [inhibitor, partial curve]
O=C(Nc1cc2nn(-c3ccccc3)nc2cc1Cl)c1ccco1	inconclusive: 3.16 µM [inhibitor, partial curve]
CCCn1c(NC(=O)c2ccccc2Br)nc2ccccc21	inconclusive: 39.8 µM [inhibitor, single point]
COc1ccc2oc(=N)c(-c3nnc4n3CCCCC4)cc2c1	inconclusive: 31.6 µM [inhibitor, partial curve]
CCOc1ccccc1-c1cc(C(=O)N/N=C/c2ccc3c(c2)OCO3)c2ccccc2n1	inconclusive: 35.5 µM [inhibitor, single point]
O=[N+]([O-])c1cccc(Nc2c3ccccc3nc3ccccc23)c1	inconclusive: 31.6 µM [inhibitor, partial curve]
CC(C)(C)NC(=O)CN(C(=O)C1(C)CC(=O)N=C2C=CC=CN21)C1CCCC1 (configuration not stated)	inconclusive: 31.6 µM [inhibitor, partial curve]
O=C(CC1C(=O)NCCN1Cc1ccc(-c2ccccc2)cc1)NCC1CCOCC1 (configuration not stated)	inconclusive: 35.5 µM [inhibitor, single point]
CC(C(=O)O)N1C(=O)c2cccc3cccc1c23 (configuration not stated)	inconclusive: 39.8 µM [inhibitor, single point]
CC1(C(=O)CSc2nc3ccccc3s2)CCC(=O)O1 (configuration not stated)	inactive
CC(Sc1ccc2ccccc2c1)C(=O)NC(N)=O (configuration not stated)	inactive
CC(NC(=O)OCc1ccccc1)C(=O)Oc1cc2oc(=O)cc(-c3ccccc3)c2cc1Cl (configuration not stated)	inconclusive: 28.2 µM [inhibitor, partial curve]
CCOc1ccccc1NC(=O)CN(c1ccc(OC)cc1)S(=O)(=O)c1c(C)noc1C	inactive
CN1C/C(=C\c2ccc(N3CCOCC3)cc2)C(=O)/C(=C/c2ccc(N3CCOCC3)cc2)C1	inactive
CCCCCCC(=O)N(O)C1CC(=O)N(c2ccc(Cl)cc2)C1=O (configuration not stated)	inconclusive: 10 µM [inhibitor, partial curve]
C=CCNC(=O)c1c2c(nc3ccccc13)-c1ccccc1CC2	inconclusive: 31.6 µM [inhibitor, partial curve]
Cc1ccc(Cl)cc1NC(=O)C[n+]1ccc(Cc2ccc([N+](=O)[O-])cc2)cc1	inactive
COc1cc(-c2cc(C(=O)Nc3c(Cl)cc(Cl)cc3Cl)c3ccccc3n2)cc(OC)c1OC	inconclusive: 31.6 µM [inhibitor, partial curve]
CCCCCc1cc(=O)oc2c(C(CCN(CC)CC)c3ccc(N(C)C)cc3)c(OC)cc(OC)c12 (configuration not stated)	inconclusive: 39.8 µM [inhibitor, single point]
COc1ccc(-c2cc(C(=O)Nc3ccccc3O)c3ccccc3n2)cc1OC	inconclusive: 35.5 µM [inhibitor, single point]
Cc1cc(=O)[nH]c(S)c1C#N	active: 28.2 µM
COc1ccc(C)cc1NC(=O)c1cc2c(s1)CCC2	inconclusive: 35.5 µM [inhibitor, single point]

Structure (SMILES)	Potency
c1ccc2c(c1)nc(N1CCOCC1)c1nnnn12	inconclusive: 35.5 µM [inhibitor, single point]
Cc1cc(N2CCN(C)CC2)nc2ccc(NC(=O)CCC(=O)NCCC(C)C)cc12	inconclusive: 28.2 µM [inhibitor, partial curve]
Cc1ccc(NC(=S)NCCN(C2CCCCC2)C2CCCC2)cc1C	inactive
COC(=O)CCCC1=CC2=CC(=O)C(C)(OC(=O)c3cccs3)C(=O)C2=CO1 (configuration not stated)	inactive
CCOc1ccccc1-c1nc(-c2cc3ccc(C)cc3[nH]c2=O)no1	inconclusive: 7.94 µM [inhibitor, full curve]
CCN(CC)c1ccc(/C=C2/C(=O)N(c3ccc([N+](=O)[O-])cc3)N=C2N2CCOCC2)cc1	inactive
CCCCNc1c(N)n(CCCC)c(=O)[nH]c1=O	inconclusive: 28.2 µM [inhibitor, single point]
CC(C)Oc1ccc(C(=O)Nc2ccc(N3CCCCC3)cc2)cc1	inconclusive: 35.5 µM [inhibitor, single point]
COc1cccc(/C(O)=C2/C(=O)C(=O)N(CCN(C)C)C2c2ccc(Br)cc2)c1 (configuration not stated)	inactive
Cc1ccc2nc(-c3ccccc3)c(CN3CCN(c4ccccc4F)CC3)n2c1	inconclusive: 28.2 µM [inhibitor, single point]
COc1ccc(-c2nnc(SCCC(=O)O)n2-c2ccccc2)cc1	inactive
C/C(=N\NC(=O)C(C)Oc1ccc([N+](=O)[O-])cc1)c1ccccn1 (configuration not stated)	inconclusive: 39.8 µM [inhibitor, single point]
O=c1c2ccccc2nc(-c2ccco2)n1/N=C/c1ccccc1O	inactive
COc1ccc2[nH]c(=O)c(CN(c3ccc(C)c(C)c3)S(C)(=O)=O)cc2c1	inconclusive: 31.6 µM [inhibitor, single point]
COc1cc(/C=C\C(=O)OCn2nnc3ccccc3c2=O)cc(OC)c1OC	inconclusive: 39.8 µM [inhibitor, single point]
CCCn1c(SCC(=O)c2cc(C)ccc2C)n[nH]c1=O	inactive
O=C(/C=C/c1ccc(Br)cc1)Nc1ccc(S(=O)(=O)Nc2ncccn2)cc1	inconclusive: 28.2 µM [inhibitor, partial curve]
N#Cc1ccc(-c2ccc3c(c2)OCO3)nc1SCC(=O)OCc1ccccc1	inconclusive: 17.8 µM [inhibitor, partial curve]
Cn1c(C(=O)N2CCc3ccccc3C2)cc2c(=O)n3ccccc3nc21	inconclusive: 31.6 µM [inhibitor, partial curve]
Cc1ccc(-n2nc(C)c3c(C)cc(=O)[nH]c32)cc1	inconclusive: 31.6 µM [inhibitor, partial curve]
Clc1ccc(C2=NNC(=NCc3ccc4c(c3)OCO4)SC2)cc1	inactive
Cc1ccc(-c2cc(-c3ccco3)c3c(N)c(C(=O)NN)oc3n2)cc1	active: 3.16 µM
Cc1ccccc1-n1nnnc1SCC(=O)NCC1CCCO1 (configuration not stated)	inactive
Cc1ccc(C(=O)c2nocc2C(=O)c2cccs2)cc1	inconclusive: 39.8 µM [inhibitor, single point]

Structure (SMILES)	Potency
Cc1ccc(N=Nc2ccc(O)c(P(=O)(c3ccccc3)c3ccccc3)c2)cc1	inconclusive: 22.4 µM [inhibitor, single point]
O=C(O)C1CC=CCC1C(=O)Nc1ccc(S(=O)(=O)N2CCCc3ccccc32)cc1 (configuration not stated)	inactive
O=C(O)c1ccc(/C=N/n2cc(-c3ccccc3)[nH]c2=S)cc1	inconclusive: 35.5 µM [inhibitor, partial curve]
Cc1oc(/C=N/NC(=O)CC2(C)OCCO2)cc1Br	inactive
O=C(CCN1C(=O)c2cccc3cccc(c23)C1=O)Nc1ccon1	inconclusive: 35.5 µM [inhibitor, partial curve]
CC(C)NC(=O)c1ccc2c(=O)n(CC3CCCO3)c(=S)[nH]c2c1 (configuration not stated)	inactive
CSCCC(NC(C)=O)C(=O)Oc1ccc2c3c(c(=O)oc2c1)CCCC3 (configuration not stated)	inconclusive: 28.2 µM [inhibitor, partial curve]
CC(C)CSc1ccc(S(=O)(=O)NCC(=O)O)cc1[N+](=O)[O-]	inactive
c1ccc(Cn2nnc3c(N4CCc5ccccc5C4)ncnc32)cc1	inconclusive: 22.4 µM [inhibitor, single point]
Cc1ccccc1C(=O)N/N=C/c1ccsc1C	inactive
Cn1c(=O)c(C(=O)COC(=O)c2cc(C(F)(F)F)nc3ccccc23)c(N)n(Cc2ccccc2)c1=O	inconclusive: 25.1 µM [inhibitor, single point] and inconclusive: 17.8 µM [inhibitor, partial curve]
CCN(CC)S(=O)(=O)c1cccc(C(=O)N/N=C/c2ccccc2OCC(=O)O)c1	inactive
O=C(/C=C/c1ccco1)Nc1nnc(-c2ccco2)s1	inconclusive: 39.8 µM [inhibitor, single point]
CN(C)c1ccc(C=C2C(=O)OC(C)(C)OC2=O)cc1	inactive
O=C1NC2(NN1c1ccccc1)C1CC3CC(C1)CC2C3 (configuration not stated)	inactive
COc1ccccc1/C=C/C(=O)NC(=S)NCC1CCCO1 (configuration not stated)	inconclusive: 31.6 µM [inhibitor, partial curve]
Cn1cccc1Cc1nnc(SCC(=O)Nc2ccc(F)cc2F)n1-c1ccc(F)cc1	inactive
CC(C)N(Cc1ccccc1)C(=O)COC(=O)/C=C/c1cnc2ccccc2n1	inactive
O=C(NC(=S)NCc1cccnc1)c1cccc2ccccc12	inactive
Cc1ccc(CSCC(Nc2ccc(C(=O)O)cc2[N+](=O)[O-])C(=O)O)cc1 (configuration not stated)	inactive
Cn1c(C(=O)NCCCN2CCN(c3ccccc3F)CC2)cc2c(=O)n(C)c3ccccc3c21	inconclusive: 31.6 µM [inhibitor, partial curve]
Clc1nc(Cl)nc(-c2cn(-c3ccccc3)c3ccccc23)n1	inconclusive: 3.98 µM [inhibitor, full curve]
COc1cc(OC)c(OC)cc1CN(C)CCc1ccccn1	inconclusive: 39.8 µM [inhibitor, single point]
CCOc1ccc(C(=O)Nc2ccc(N3CCCC3)cc2)cc1	inactive
